{"source": "patent US20250236878A1", "about": "(priority 2019, published 2025)", "molecules": {"B1": {"name": "SEQ ID NO: 774: β-1,3-D-glucanase (protein)", "chain": "RTAAPEQARTAAGAAAAVSTFSDTFDGPAGAAVDSSKWTLETGDNVNNHERQYYTSGTKNAALDGQGHLVITARKENPAGYQCWYGSCQYTSARLNTAGKFNAQYGHVEARMKIPRGQGMWPAFWMLGTPVNWPDSGEIDVMENVGFEPSTVHGTIHGPGYSGSGGIGAAYSLPNGQAFADAFHTFAVDWAPDSITWSVDGNVYQRRTPADLGGKSWVFNKPFFLILNLAVGGYWPGDPDGSTQFPQTLVVDSVSVTTSGGGAGVPIRGLAGKCVDVAGANSANGTPVQLYDCNGTGAQAWTAGSDGTLRALGKCLDVSGGGTADGTPVQLWDCNGSPAQQWALPAARDIVNPQANKCLDVTGNNAANGTRLQIWTCTGGANQKWTVG", "modifications": "Streptomyces sp. SYBC17"}, "B2": {"name": "SEQ ID NO: 775: β-1,3-D-glucanase (protein)", "chain": "AGPAGETAGRTVQKAAQGAEAAPAAVLFEENFDGPAGSAVDSRRWQLETGDNSGNNHERQYYTPGNANAALDGNGNLVITARKENPGNYQCWYGRCEYTSARMNTAGKFTTTYGHIEARMKLPRGQGMWPAFWMLGHDIGSVGWTNSGEIDIMENVGYEPGTVHGTLHGPGYSGGEGIGAGYTLPGGRAFADDFHTFAVDWSPNSITWSVDGQVYQRRTPADLGGDRWVFDKPFFLILNLAVGGDWPGLPDSSTVFPQKLVVDYVRVTSGGDSGGGGGGRTGTITGLAGKCLDVAWADTANGTPVQIHDCNGNAAQQWTVGTDGTIRALGKCLDVSGAGKADGTPVQIWDCNGTAAQQWVVTGARDIVNPNADKCLDVRDNNSANGTKTQIWTCSGTANQKWNTP", "modifications": "Streptomyces sp. S27"}, "B3": {"name": "SEQ ID NO: 773: β-1,3-D-glucanase (protein, listed as Kitasatospora phosalacinea)", "chain": "ATTPLAAAPVAAGNWGDDFDGPAGAAVDPAKWTLETGGSGNGNHELQYYTAGAANAALDGQGHLVITAKRNTDPGLSCWYGTCQYTSARLNTSRTFTQAYGHFESRIKIPRGQGIWPAFWMLGNDLGTAGWPNSGEIDVMENIGREPGTVHGTIHGPGYSGAGGIGAPYSLPAGQSFADAFHTFAVDWSPTAITWSVDGTAYQTRTPADLGGNRWVFDHPFFVILNLAVGGDWPGSPDGSSTYPQTMTVDYVHTTTWGGSTGGSYTGQITGPGGMCMDVAGASSADSTPIQLHNCTGNAAQQWTVGADGTVRALGKCLDVAAASHNDGAAIQLYTCNGTSAQQWTHRSGNDLLNPGSGKCLDSPNGSSADGTHLQLWTCNGTGAQKWTLG"}, "B4": {"name": "Serine Protease 2: serine protease 2 cloned from Bacillus subtilis, four substitutions relative to SEQ ID NO: 722 (protein, listed as Bacillus subtilis)", "chain": "SSKTSADLEKAEVFGDIDMTTSKKTTVIVELKEKSLAEAKEAGESQSKSKLKTARTQAKNKAIKAVKNGKVNREYEQVFSGFSMKLPANEIPKLLAVKDVKAVYPNVTYKTDNMKDKDVTISEDAVSPQMDDSAPYIGANDAWDLGYTGKGIKVAIIDTGVEYNHPDLKKNFGQYKGYDFVDNDYDPKETPTGDPRGEATDHGTHVAGTVAANGTIKGVAPDATLLAYRVLGPGGSGTTENVIAGVERAVQDGADVMNLSLGNSLNNPDWATSTALDWAMSEGVVAVTSNGNSGPNGWTVGSPGTSREAISVGATQLPLDEYAVTFGSYSSAKVMGYNKEDDVKALNNKEVELVEAGIGEAKDFEGKDLTGKVAVVKRGSIAFVDKADNAKKAGAIGMVVYNNLSGEIEANVPGMSVPTIKLSLEDGEKLVSALKAGETKTTFKLTVSKALGEQVADFSSRGPVMDTWMIKPDISAPGVNIVSTIPTHDPDHPYGYGSKQGTSMASPHIAGAVAVIKQAKPKWSVEQIKAAIMNTAVTLKDSDGEVYPHNAQGAGSARIMNAIKADSLVSPGSCSYGTFLKENGNETKNETFTIENQSSIRKSYTLEYSFNGSGISTSGTSRVVIPAHQTGKATARVKVNTKKTKAGTYEGTVIVREGGKTVAKVPTLLIVKEPDYPRVTSVSVSEGSVQGTYQIETYLPAGAEELAFLVYDSNLDFAGQAGIYKNQDKGYQYFDWDGTINGGTKLPAGEYYLLAYAANKGKSSQVLTEEPFTVE"}, "B5": {"name": "SEQ ID NO: 732: β-1,3 endoglucanase, Paenibacillus species (protein)", "chain": "AETAGTTITSMSYFSTADGPIITKSGVGQASYGFVMPIFNGGSATWNDVAQDLGVKVKVNGSWVDIDSVSSFVYNQNWGHWNDGGFTGYWFTLSATTEIQLYSKANEVTLEYSLVFQNINKTTITAMTPTQGPQITAGFTGGAGFTYPIFNHDPAITYAAVADDLKVYVKPVNSSQWIDIDNNAASGWIYDQNFGQFTDGGGGYWFNVTESINVKLESKTSSTNIVYTISFNEPVRNSYVLTPYEGTTFTADASGAIGIPLPKIDGGAPIGTELGNFVYQININGQWVDLDNSSQSGFVYSANGYNNMSAANQWGYWADHIYGLWFQPIQVDMQIRIGYPLNGQAGGSVGSNFVNYTLIGNPDAPRPDVNDQEDIPIGTPNDSAIEGMNLIWQDEFNGTALDQSKWNYETGYYLNDDPNTWGWGNSELQHYTDRAQNVFVQDGKLNIKALNEPKSFPQDPSRYAQYSSGKINTKDHFSLKYGRVDFRAKLPTGNGIWPALWMLPQDNVYGTWASSGEIDVMEAKGRLPGSTSGAVHFGGQWPTNRYLSGEYHFPEGQTFANDYHVYSVVWEEDNIKWYVDGKFFFKVTRDQWYSAAAPNNPNAPFDQPFYLIMNLAIGGTFDGGRTPDPSDIPATMQVDYVRVYKEGEGGGQNPGNVPVTGVTVNPTTAQVEVGQSVQLNASVAPSNATNKQVTWSVSGSSIASVSPNGLVTGLAQGTTTVTATTADGNKAASATITVAPAPSTVIVIGDEVKGLKKIGDDLLFYVNGATFADLHYKVNNGGQLNVAMAPTGNGNYTYPVHNLKHGDTVEYFFTYNPGQGALDTPWQTYVHGVTQGTPE", "modifications": "Paenibacillus spp.", "notes": "β-1,3 endoglucanase, Paenibacillus species"}}, "key": {"[1]": {"conditions": "A540 30 min post-treatment, 37° C., citrate buffer pH 4.9 (Table 55)", "procedure": "CM-pachyman was carboxymethylated with chloroacetic acid to increase solubility in aqueous solutions.\nAn amount of 0.125 g of CM-pachyman from Poria cocos was dissolved in 23.5 mL water, at 90° C., and diluted to 25 mL in 0.5 M sodium citrate buffer, pH 4.9."}, "[2]": {"test_system": "kiwi Actinidiae deliciosa 'Hayward' plants", "conditions": "29 DAI; foliar application", "procedure": "24-hours after the initial treatments, all plants except for the uninfected controls were sprayed with 1×10^8 cfu/mL PSA-V inoculum using a 5 L hand-held pressurized sprayer aimed at the underside of leaves until thoroughly covered. The uninfected control was sprayed with water alone. Potted plants were then transported to Pukehina and placed in an area with overhead misting for 48 hours to mimic environmental conditions for PSA-V infection, with uninfected control plants separated from infected plants. After 48 hours, a subset of plants was then removed from the misting area and allowed to briefly dry before application of Serine Protease 2 (SEQ ID NO: 795). After the final treatments, all plants were moved to their final outdoor trial site, randomized positions in Pukehina. Average daily temperature at the trial site was 20.75° C. with a total rainfall of 277 mm over 34 days. […] Plants were visually monitored throughout the trial period for PSA-V disease assessments, with the same assessor recording the % of leaf area covered in spots at 6 days after inoculation (6 DAI), 16 DAI, 23 DAI and 29 DAI. Additionally, each plant was assessed for treatment phytotoxicity effects at 29 DAI on a scale of 0-10, with 0=no leaf phytotoxicity and 10=very severe leaf phytotoxicity symptoms. […] P-values were calculated for each treatment vs. the untreated control."}}}
{"molecule": "B1", "values": [{"measurement": "activity on CM-pachyman from Poria cocos", "setting": "[1]", "value": "have activity"}]}
{"molecule": "B2", "values": [{"measurement": "activity on CM-pachyman from Poria cocos", "setting": "[1]", "value": "have activity"}]}
{"molecule": "B3", "values": [{"measurement": "activity on CM-pachyman from Poria cocos", "setting": "[1]", "value": "have activity"}]}
{"molecule": "B4", "values": [{"measurement": "Average Phytotoxicity Score (0-10)", "setting": "[2]", "value": "0.0 (±0.0)"}]}
{"molecule": "B5", "values": [{"measurement": "activity on CM-pachyman from Poria cocos", "setting": "[1]", "value": "highest activities"}]}
